Among the data in PubChem BioAssay (NCI) are GI50 and TGI values, retold here.

The assay has as its system NCI-H322M lung. In words: growth of human tumour cells (NCI), 48 h.

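Compound exposure: 48 hours, 5 concentrations, 96-well plates. Abbreviation: GI50, concentration required for 50% inhibition of growth. TGI: total growth inhibition.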

Take `O=C(CSc1nnc(-c2ccc3nc(-c4ccc(Cl)cc4)[nH]c3c2)o1)Nc1ccc(Br)cc1`: the GI50 was 8.53 µM and the TGI worked out at 23.4 µM.
